Assay results published in PubChem BioAssay AID686978 (National Center for Advancing Translational Sciences (NCATS), 2013).
The campaign covered roughly 420,000 compounds. About 64,000 (15%) were called active. This list was built around the results that the source calls inconclusive (neither active nor inactive); the mix of calls is not that of the screen. The call rests on the fitted dose curve; in most records, active means well fitted inhibition curve with a large enough effect; inconclusive means small, poorly fitted or top-dose-only effect; inactive means flat fitted curve, though single readings scatter. Potencies of inconclusive entries are left out as doubtful fits.
Potency means the concentration at half of the fitted maximal effect; tags describe the fitted curve by direction and shape.

Test: qHTS for Inhibitors of human tyrosyl-DNA phosphodiesterase 1 (TDP1): qHTS in cells in absence of CPT; further: nearly all actives have a fitted effect of over 55% in size
Conditions: DT40 Tdp1-/- hTDP1 cells, no CPT, ATP luminescence, 48 h; series mostly up to 46.2 µM
Summary of the method: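 Growth kinetics read by CellTiter-Glo luminescence after ≥48 hr at 37 °C. Cells: DT40 Tdp1-/- stably carrying human TDP1, 400 per well, compound exposure in the absence of CPT (DMSO vehicle).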
For `O=C(Nc1cccc(S(=O)(=O)N2CCCC2)c1)[C@@H]1O[C@H](CO)[C@H](O)[C@H](O)[C@H]1O`, the Potency was inconclusive [inhibitor, single point]. For `CC(C)N(C(=O)Cn1cc(S(=O)(=O)CC(=O)N2CCOCC2)c2ccccc21)C(C)C`, the Potency was “inactive”. For `Cc1ccc(C)c(S(=O)(=O)N2CCN(C(=O)c3ccc(OCc4c(C)noc4C)cc3)CC2)c1`, the Potency was inconclusive [inhibitor, partial curve, poor fit]. In the case of `CCOc1ccccc1N(CC(=O)NC1CCCC1)C(=O)CNC(=O)c1cccs1`, the Potency is reported as “inactive”. In the case of `CCCC(C(=O)NCCC(C)C)N(Cc1ccccc1)C(=O)c1snc(C(N)=O)c1N` (stereo not given), the Potency is reported as inconclusive [inhibitor, single point]. With `Cc1cc(C)n(CC(=O)N2CCCC(N3CCN(c4cccc(C(F)(F)F)c4)CC3)C2)n1` (stereo not given) the Potency was inconclusive [inhibitor, single point]. With `C[C@@H](NC(=O)c1ncn2c1C(=O)NC[C@@H]2C)c1ccccc1` the Potency was inconclusive [inhibitor, single point]. In the case of `Cc1ccsc1C(=O)N1CCC1(C)C(=O)NS(=O)(=O)c1ccccc1C(F)(F)F` (stereo not given), the Potency is reported as “inactive”. In the case of `COc1ccc(N(CC(=O)Nc2ccccc2OC)S(=O)(=O)c2ccccc2)cc1Cl`, the Potency is reported as inconclusive [inhibitor, single point]. For `Cc1ccc(C(=O)CC2C(=O)N(c3ccccc3)C(=S)N2c2ccccc2)cc1` (stereo not given), the Potency was inconclusive [inhibitor, single point]. With `NNC(=O)/C(=C\c1ccco1)NC(=O)c1ccco1` the Potency was “inactive”. With `CCn1c2ccccc2c2cc(NC(=O)CNCC3CCCO3)ccc21` (stereo not given) the Potency was inconclusive [inhibitor, single point]. In the case of `CCOC(=O)C1CCN(S(=O)(=O)c2ccc(N3CCCCS3(=O)=O)cc2)CC1`, the Potency is reported as “inactive”. For `NC(=S)c1cnn2c(-c3cccc(C(F)(F)F)c3)ccnc12`, the Potency was “inactive”. In the case of `O=C(Nc1ccc2c(c1)OCO2)N1CCCC1`, the Potency is reported as “inactive”. In the case of `CCOC(=O)C1=C(C)OC(=Cc2ccc(OC)cc2)C1=O`, the Potency is reported as “inactive”. For `COc1cccc(CNc2ccc([N+](=O)[O-])c(NCC(=O)O)n2)c1`, the Potency was “inactive”. For `COc1ccc(CCNC(=O)CSC2=NS(=O)(=O)c3cc(F)ccc3N2)cc1OC`, the Potency was inconclusive [inhibitor, single point]. For `Cc1ccc(OCCCCN(C)Cc2ccccc2)c(Br)c1`, the Potency was active: 18.4 µM. In the case of `Cc1ccc(CNC(=O)c2cc(-c3ccc(C)cc3)nc3n[nH]c(-c4ccc(F)cc4)c23)cc1`, the Potency is reported as “inactive”.
